Screen size: about 340,000 compounds; about 12,000 (3.5%) were called active. Inconclusive means that the source gave no clear call. Such entries were picked first, then a sample of the others. The call rests on the fitted dose curve; in most records, active means well fitted inhibition curve with a large enough effect; inconclusive means small, poorly fitted or top-dose-only effect, or another doubt; inactive means no such curve, though single readings can be large or run the other way. Potencies of inconclusive entries are left out as doubtful fits.
Experiment: qHTS Assay for Inhibitors of Hepatitis C Virus (HCV)
Details: Huh7.5.1 HCVcc-Cre (HCVcc is cell-culture hepatitis C virus) infection, luciferase reporter, 44 h; activity change, negative = inhibition: at 41.8 µM (top of the series) unless noted
How it was run: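 Compounds are dispensed onto cells plated 4 h earlier at 1,000 per well, with HCVcc-Cre virus (about 0.5 moi) added next. Following 44 h of culture, luminescent signal is measured for 15 sec after 15 min with substrate at room temperature.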
On the % scale 0 is the no-effect control and ±100 the full control effect; potency means the concentration at half of the fitted maximal effect; tags describe the fitted curve by direction and shape.

Row | SMILES | Potency | activity change, negative = inhibition
1 | COCCN(CC(=O)Nc1cccc(C)c1C)C(=O)Cc1sc(C)nc1-c1ccc(F)cc1 | inconclusive [inhibitor, single point] | 
2 | O=C1C(Br)=Cc2cccc3cccc1c23 | inconclusive [inhibitor, single point] | 
3 | O=C(O)c1c2c(nc3ccccc13)/C(=C/c1ccc(O)cc1)CC2 |  | inactive: 17.8%
4 | C=CCn1cccc(C(=O)Nc2cc(OC)cc(OC)c2)c1=O |  | inactive: -29%
5 | COc1ccc(-n2c(SCC(=O)Nc3sc4c(c3C#N)CCCC4)nnc2-c2ccccc2OC)cc1 | inconclusive [inhibitor, partial curve] | 
6 | CCc1nnc(NC(=O)CCC(=O)NCc2ccccc2Cl)s1 |  | inactive: 3.55%
7 | COc1cccc(C(=O)Nc2ccc(NC(=O)C(C)(C)C)cn2)c1 | inconclusive [inhibitor, single point] | 
8 | Cc1cc(NC(=O)c2ccc(F)cc2)n(CCOC(=O)c2ccc(F)cc2)n1 | inconclusive [inhibitor, single point] | 
9 | CCCOc1ccc(C2C3=C(Nc4nc(N)[nH]c(=O)c42)c2ccccc2C3=O)cc1 (configuration not stated) | inconclusive [inhibitor, partial curve] | 
10 | COc1ccc(-n2ncc3c(Nc4cccc(C)c4)ncnc32)cc1 | inconclusive [inhibitor, partial curve] | 
11 | O=C(O)CCCC(=O)N1N=C(c2ccccc2)CC1c1ccc2nccnc2c1 (configuration not stated) |  | inactive: 4.04%
12 | CCN(CC)CCCNC(=O)c1cc(-c2cccc(Cl)c2)on1 | inconclusive [inhibitor, single point] | 
13 | CO/N=C/C(C(C)=O)C(=O)Nc1ccc(Cl)cc1Cl (configuration not stated) | inconclusive [inhibitor, single point] | 
14 | CSc1nc(C)cc(C)c1S(=O)(=O)c1ccccc1C | inconclusive [inhibitor, partial curve] | 
15 | Cn1c(=O)c2cn(-c3ccc4c(c3)OCCO4)cc2n(C)c1=O |  | inactive: -2.16%
16 | Cc1ccc(NC(=S)NNC(=O)C2CC2c2ccc(C)cc2)cc1 (configuration not stated) | inconclusive [inhibitor, single point] | 
17 | CCOC(=O)CC1CCCCN1C(=O)c1cc(COc2cccc3cnccc23)on1 (configuration not stated) | active: 2.24 µM | 
18 | COc1ccc(C)cc1Nc1nc(-c2c[nH]c3ccccc23)cs1 | inconclusive [inhibitor, single point] | 
19 | O=C(Nc1ncccc1Cl)c1cccc(F)c1 | inconclusive [inhibitor, single point] | 
20 | COc1ccccc1NC(=O)CSc1nncn1-c1cccnc1 |  | inactive: 1.08%
21 | Cc1ccc(-c2nnn(CC(=O)N(Cc3ccc(F)cc3)C(C(=O)NC3CCCC3)c3ccncc3)n2)o1 (configuration not stated) | inconclusive [inhibitor, single point] | 
22 | CCCc1cc(=O)oc2c3c(cc(OCC(=O)NCc4ccncc4)c12)OC(C)(C)CC3 | inconclusive [inhibitor, partial curve] | 
23 | O=C(Nc1ncccc1O)C1CCN(S(=O)(=O)c2ccc3ccccc3c2)CC1 |  | inactive: 10.6%
24 | CN(C)S(=O)(=O)c1ccc(N2CCCC2)c(C(=O)Nc2ccccc2Br)c1 | inconclusive [inhibitor, partial curve] | 

Row | SMILES | Potency | activity change, negative = inhibition
25 | CC12CC3CC(C)(C1)CC(CN)(C3)C2 |  | inactive: -2.66%
26 | O=C(NC(Cc1c[nH]c2ccccc12)C(=O)NCCCN1CCOCC1)c1cccs1 (configuration not stated) | inconclusive [inhibitor, single point] | 
27 | COc1ccc(-c2nnc(SCC(=O)Nc3ccc(C(=O)O)cc3)n2-c2ccc(Cl)cc2)cc1 | inconclusive [inhibitor, single point] | 
28 | NCC/C=C1/c2ccccc2CSc2ccccc21 | inconclusive [inhibitor, partial curve, poor fit] | 
29 | COc1ccc(C(=O)NC(C)CCc2ccccc2)c(OC)c1 (configuration not stated) | inconclusive [inhibitor, single point] | 
30 | Fc1ccc(CN(Cc2ccccc2)C(c2cccs2)c2nnnn2C2CCCCC2)cc1 (configuration not stated) | inconclusive [inhibitor, single point] | 
31 | Cn1cccc1/C=N/NC(=O)c1cccs1 |  | inactive: -5.63%
32 | Cc1nn2c(N3CCN(C(=O)c4ccco4)CC3)cc(C(C)(C)C)nc2c1-c1ccccc1 |  | inactive: 13.3%
33 | CCN(CC)c1ccc(/C=N/Nc2nc(C)cc(=O)[nH]2)c(O)c1 | active: 3.98 µM | 
34 | CC1=C(C(=O)Nc2nc3ccccc3s2)C(c2ccco2)C(C#N)=C(SCC(=O)NC2CCCCC2)N1 (configuration not stated) | inconclusive [inhibitor, single point] | 
35 | COc1ccc(CN(C)CC(=O)Nc2ccc(SC(F)F)cc2)cc1OC | inconclusive [inhibitor, single point] | 
36 | O=C(NCCc1ccccc1)c1oc2ccccc2c1COc1ccccc1 | inconclusive [inhibitor, single point] | 
37 | CS(=O)(=O)c1nc(S(=O)(=O)c2ccc(Cl)cc2)c(NCCCN2CCCC2=O)s1 |  | inactive: 5.41%
38 | CC(O)C(NS(=O)(=O)c1ccc(Cl)cc1)C(=O)OCc1cc([N+](=O)[O-])cc2c1OCOC2 (configuration not stated) | active: 10 µM | 
39 | COc1ccc(NC(=O)CN2CCN(C(=S)NC3CCCC3)CC2)cc1 |  | inactive: 8.78%
40 | O=C(NC1CCCC1)C(c1ccc(F)cc1)N(Cc1ccccc1Cl)C(=O)CCl (configuration not stated) | inconclusive [inhibitor, single point] | 
41 | COc1cccc(-n2cc3c(=O)n(C)c(=O)n(C)c3c2)c1 | inconclusive [inhibitor, partial curve] | 
42 | CC1(C)CC(=O)c2c(O)cc(OCC(=O)NCCc3ccc(S(N)(=O)=O)cc3)cc2O1 | inconclusive [inhibitor, full curve, poor fit] | 
43 | COc1cc2nc(CN(C)CC(=O)Nc3ccc(N4CCOCC4)cc3)[nH]c(=O)c2cc1OC | inconclusive [inhibitor, single point] | 
44 | CC1CC(C)CN(C(=O)/C=C/c2ccc([N+](=O)[O-])s2)C1 (configuration not stated) | inconclusive [inhibitor, single point] | 
45 | CCOC(=O)c1ccc(NC(=O)CCc2nc(-c3ccc(C)cc3)no2)cc1 | active: 8.91 µM | 
46 | Cc1cc(C(=O)N(Cc2nnc(-c3ccc(Cl)cc3)o2)C(C)C)c2ccccc2n1 |  | inactive: -13.2%
47 | CCOc1ccc(N2C(=O)CS/C2=C(\C(Cl)=C(Cl)Cl)[N+](=O)[O-])cc1 | inconclusive [inhibitor, single point] | 
48 | CC1=Nc2nc(N3CCCCC3)c(C#N)c3c4c(nc(c23)N1)N(c1ccc(C(C)C)cc1)C(=O)C4 | inactive | 

Row | SMILES | Potency | activity change, negative = inhibition
49 | COc1ccc(CCCC(=O)NCc2ccccc2)cc1C | inconclusive [inhibitor, full curve, poor fit] | 
50 | CCC1(C)N([O-])C(C)=C(c2ccccc2)[N+]1=O (configuration not stated) |  | inactive: 12.6%
51 | CN(C)c1nc(N(C)C)n(C(=O)c2cccs2)n1 | inconclusive [inhibitor, partial curve] | 
52 | c1ccc(OCCOCCOc2ccccc2)cc1 | active: 1.12 µM | 
53 | CCOC(=O)c1ccc(NC(=O)c2ccc(NC(=O)C3CCCO3)cc2)cc1 (configuration not stated) | inconclusive [inhibitor, single point] | 
54 | Cn1c(C(O)c2ccc3c(c2)OCO3)nc2ccccc21 (configuration not stated) |  | inactive: -18.5%
55 | C/C(=N\NC(=O)C1CC1)c1ccc(OC(F)F)cc1 |  | inactive: -8.56%
56 | Cc1cc(C)nc(SSc2nc(C)cc(C)n2)n1 |  | inactive: 8.73%
57 | COc1ccccc1NC(=O)Cn1cc(C(=O)C2CC2)c2ccccc21 |  | inactive: -11.2%
58 | Cc1nc(NCc2ccccn2)c2c3c(sc2n1)CCCC3 | active: 22.4 µM | 
59 | N#Cc1c(NC(=O)CCCN2C(=O)c3ccccc3C2=O)oc(-c2ccccc2)c1-c1ccccc1 | inconclusive [inhibitor, partial curve, poor fit] | 
60 | O=C(CSc1nc(=O)n(CCCN2CCOCC2)c2c1CCC2)Nc1ccc([N+](=O)[O-])cc1 | inconclusive [inhibitor, single point] | 
61 | CCn1nc(NC(=O)C(C)C)c2cc3ccc(C)cc3nc21 | inconclusive [inhibitor, single point] | 
62 | CN1CCN(S(=O)(=O)c2cnc(Cl)c(Br)c2)CC1 | inconclusive [inhibitor, single point] | 
63 | CCOC(=O)c1c(NC(=O)COC(=O)CCCOc2ccc(OC)cc2)sc(C(=O)NC)c1C | inconclusive [inhibitor, partial curve] | 
64 | COc1ccccc1N1CCN(C(=O)CCC(=O)N2CCN(c3ccc(F)cc3)CC2)CC1 |  | inconclusive: -32.3% [inhibitor]
65 | Nc1ccccc1C#Cc1ccc([N+](=O)[O-])cc1 | inconclusive [inhibitor, full curve] | 
66 | COc1ccc2nc(C)cc(N/N=C/c3cccc(OC)c3O)c2c1 | inconclusive [inhibitor, partial curve] | 
67 | Cc1cccc(C)c1OCC(=O)NNC(=O)CNC(=O)c1ccc(OC(F)F)cc1 | inconclusive [inhibitor, partial curve] | 
68 | Cc1nc(-c2cc(C#N)c(Sc3ccc(Cl)cc3Cl)nc2C)cs1 |  | inactive: -12.4%
69 | CC#Cc1cc2c(cc1O)CCC1C2CCC2(C)C(O)CCC12 (configuration not stated) | inconclusive [inhibitor, partial curve, poor fit] | 
70 | c1ccc(-c2n[nH]c3c2CCC3)cc1 | active: 12.6 µM | 
71 | O=C(COc1ccc2ccccc2c1Br)NC(=S)Nc1cccc(CO)c1 |  | inactive: -20.8%
72 | O=C1/C(=C/c2ccccc2[N+](=O)[O-])COc2ccccc21 | inconclusive [inhibitor, single point] | 
